Laboratory results as given in patent US8669255B2, “Substituted octahydropyrrolo[1,2-a]pyrazines as calcium channel blockers” (AbbVie Inc., priority 2011, dated 2014).

Target: human Cav2.2 (Homo sapiens, UniProt Q00975)
Assay: In vitro assessment of calcium channel activity using FLIPR (Ca2+ influx in IMR32 cells)
Format: cell-based
Conditions: IMR32 cells endogenously expressing human Cav2.2; 60 minute pre-incubation; 2 μM nifedipine; depolarized with 80 mM KCl; average of at least two runs unless marked (*)

Row | Structure (SMILES) | IC50
1 | COC(C(=O)N1CCN2C[C@H](Oc3cnc(C4CC4)cn3)C[C@H]2C1)c1cccc(C(F)(F)F)c1 (stereo partly drawn) [Example 162, 1-[(7R,8aS)-7-[(5-cyclopropylpyrazin-2-yl)oxy]hexahydropyrrolo[1,2-a]-pyrazin-2(1H)-yl]-2-methoxy-2-[3-(trifluoromethyl)phenyl]ethanone] | 1.11 µM
2 | O=C(/C=C/c1ccc(F)c(C(F)(F)F)c1)N1CCN2C[C@H](Oc3cnc(C4CC4)cn3)C[C@H]2C1 [Example 154, (2E)-1-[(7R,8aS)-7-[(5-cyclopropylpyrazin-2-yl)oxy]hexahydropyrrolo[1,2-a]pyrazin-2(1H)-yl]-3-[4-fluoro-3-(trifluoromethyl)phenyl]prop-2-en-1-one] | 0.75 µM
3 | CO[C@H](C(=O)N1CCN2C[C@H](Oc3cnc(C4CC4)cn3)C[C@H]2C1)c1cccc(C(F)(F)F)c1 [Example 168, (2S)-1-[(7R,8aS)-7-[(5-cyclopropylpyrazin-2-yl)oxy]hexahydropyrrolo[1,2-a]pyrazin-2(1H)-yl]-2-methoxy-2-[3-(trifluoromethyl)phenyl]ethanone] | 1.9 µM
4 | O=C(N[C@H]1C[C@H]2CN(C(=O)c3cccc(C(F)(F)F)c3)CCN2C1)c1ccc(Cl)cc1F [Example 9, 4-chloro-2-fluoro-N-{(7S,8aS)-2-[3-(trifluoromethyl)benzoyl]octahydro-pyrrolo[1,2-a]pyrazin-7-yl}benzamide] | 5.37 µM
5 | O=C(Cc1ccc(Cl)c(C(F)(F)F)c1)N1CCN2C[C@H](Oc3cnc(C4CC4)cn3)C[C@H]2C1 [Example 131, 2-[4-chloro-3-(trifluoromethyl)phenyl]-1-[(7R,8aS)-7-[(5-cyclopropyl-pyrazin-2-yl)oxy]hexahydropyrrolo[1,2-a]pyrazin-2(1H)-yl]ethanone] | 0.54 µM
6 | O=C(Cc1cc(C(F)(F)F)ccc1F)N1CCN2C[C@H](Oc3cnc(C4CC4)cn3)C[C@H]2C1 [Example 140, 1-[(7R,8aS)-7-[(5-cyclopropylpyrazin-2-yl)oxy]hexahydropyrrolo[1,2-a]-pyrazin-2(1H)-yl]-2-[2-fluoro-5-(trifluoromethyl)phenyl]ethanone] | 0.73 µM
7 | O=C(Cc1ccc(F)c(C(F)(F)F)c1)N1CCN2C[C@H](Oc3cnc(C4CC4)cn3)C[C@H]2C1 [Example 125, 1-[(7R,8aS)-7-[(5-cyclopropylpyrazin-2-yl)oxy]hexahydropyrrolo[1,2-a]-pyrazin-2(1H)-yl]-2-[4-fluoro-3-(trifluoromethyl)phenyl]ethanone] | 0.77 µM
8 | O=C(CCC(F)(F)F)N1CCN2C[C@@H](Nc3ccc(C(F)(F)F)cn3)C[C@H]2C1 [Example 22, 4,4,4-trifluoro-1-[(7S,8aS)-7-{[5-(trifluoromethyl)pyridin-2-yl]amino}-hexahydropyrrolo[1,2-a]pyrazin-2(1H)-yl]butan-1-one] | 16.4 µM
9 | CC(C)c1cnc(O[C@@H]2C[C@H]3CN(C(=O)Cc4cccc(C(F)(F)F)c4)CCN3C2)cn1 [Example 161, 1-[(7R,8aS)-7-[(5-isopropylpyrazin-2-yl)oxy]hexahydropyrrolo[1,2-a]-pyrazin-2(1H)-yl]-2-[3-(trifluoromethyl)phenyl]ethanone] | 1.31 µM
10 | O=C(c1ccc(C(F)(F)F)cc1F)N1CCN2C[C@H](Oc3cnc(C4CC4)cn3)C[C@H]2C1 [Example 78, [(7R,8aS)-7-[(5-cyclopropylpyrazin-2-yl)oxy]hexahydropyrrolo[1,2-a]-pyrazin-2(1H)-yl][2-fluoro-4-(trifluoromethyl)phenyl]methanone] | 2.33 µM
11 | CC(C)(C)NC(=O)CN1CCN2C[C@@H](NC(=O)c3ccc(Cl)c(Cl)c3)C[C@H]2C1 [Example 6, N-{(7S,8aS)-2-[2-(tert-butylamino)-2-oxoethyl]octahydropyrrolo[1,2-a]-pyrazin-7-yl}-3,4-dichlorobenzamide] | 10.5 µM
12 | O=C(COc1ccc(F)cc1)N1CCN2C[C@H](Oc3cnc(C4CC4)cn3)C[C@H]2C1 [Example 151, 1-[(7R,8aS)-7-[(5-cyclopropylpyrazin-2-yl)oxy]hexahydropyrrolo[1,2-a]-pyrazin-2(1H)-yl]-2-(4-fluorophenoxy)ethanone] | 3.66 µM
13 | O=C(Cc1cc(F)cc(C(F)(F)F)c1)N1CCN2C[C@H](Oc3cnc(C4CC4)cn3)C[C@H]2C1 [Example 142, 1-[(7R,8aS)-7-[(5-cyclopropylpyrazin-2-yl)oxy]hexahydropyrrolo[1,2-a]-pyrazin-2(1H)-yl]-2-[3-fluoro-5-(trifluoromethyl)phenyl]ethanone] | 0.63 µM
14 | CC(C)(C)OC(=O)NC(C(=O)N1CCN2C[C@H](Oc3cnc(C4CC4)cn3)C[C@H]2C1)c1cccc(C(F)(F)F)c1 (stereo partly drawn) [Example 180, tert-butyl {2-[(7R,8aS)-7-[(5-cyclopropylpyrazin-2-yl)oxy]hexahydro-pyrrolo[1,2-a]pyrazin-2(1H)-yl]-2-oxo-1-[3-(trifluoromethyl)phenyl]ethyl}carbamate] | 0.49 µM
15 | CN[C@@H](C(=O)N1CCN2C[C@H](Oc3cnc(C4CC4)cn3)C[C@H]2C1)c1ccc(C(F)(F)F)cc1 [Example 190, (2R)-1-[(7R,8aS)-7-[(5-cyclopropylpyrazin-2-yl)oxy]hexahydropyrrolo[1,2-a]pyrazin-2(1H)-yl]-2-(methylamino)-2-[4-(trifluoromethyl)phenyl]ethanone] | 0.43 µM
16 | O=C(C(NC1CC1)c1ccc(C(F)(F)F)cc1)N1CCN2C[C@H](Oc3cnc(C4CC4)cn3)C[C@H]2C1 (stereo partly drawn) [Example 197, 2-(cyclopropylamino)-1-[(7R,8aS)-7-[(5-cyclopropylpyrazin-2-yl)oxy]-hexahydropyrrolo[1,2-a]pyrazin-2(1H)-yl]-2-[4-(trifluoromethyl)phenyl]ethanone] | 1.05 µM

More lines, in order of falling IC50, values ahead:

Row | IC50 | Structure (SMILES)
17 | 13.7 µM | O=C(c1cccc(C(F)(F)F)n1)N1CCN2C[C@H](Oc3cnc(C4CC4)cn3)C[C@H]2C1 [Example 107, [(7R,8aS)-7-[(5-cyclopropylpyrazin-2-yl)oxy]hexahydropyrrolo[1,2-a]-pyrazin-2(1H)-yl][6-(trifluoromethyl)pyridin-2-yl]methanone]
18 | 12.5 µM | O=C(N[C@H]1C[C@H]2CN(C(=O)c3ccc(C(F)(F)F)cc3)CCN2C1)c1ccc(F)cc1 [Example 3, 4-fluoro-N-{(7S,8aS)-2-[4-(trifluoromethyl)benzoyl]octahydropyrrolo[1,2-a]pyrazin-7-yl}benzamide]
19 | 7.63 µM | CN[C@@H](C(=O)N1CCN2C[C@H](Oc3cnc(C4CC4)cn3)C[C@H]2C1)c1ccccc1 [Example 193, (2R)-1-[(7R,8aS)-7-[(5-cyclopropylpyrazin-2-yl)oxy]hexahydropyrrolo[1,2-a]pyrazin-2(1H)-yl]-2-(methylamino)-2-phenylethanone]
20 | 7.23 µM | O=C(c1cccc(N2CCCC2)n1)N1CCN2C[C@H](Oc3cnc(C4CC4)cn3)C[C@H]2C1 [Example 110, [(7R,8aS)-7-[(5-cyclopropylpyrazin-2-yl)oxy]hexahydropyrrolo[1,2-a]-pyrazin-2(1H)-yl][6-(pyrrolidin-1-yl)pyridin-2-yl]methanone]
21 | 6.78 µM | O=C(CCC(F)(F)F)N1CCN2C[C@H](Oc3cccc(C(F)(F)F)n3)C[C@H]2C1 [Example 59, 4,4,4-trifluoro-1-[(7R,8aS)-7-{[6-(trifluoromethyl)pyridin-2-yl]oxy}-hexahydropyrrolo[1,2-a]pyrazin-2(1H)-yl]butan-1-one]
22 | 5.61 µM | O=C(c1cccc(C(F)(F)F)c1)N1CCN2C[C@@H](Oc3cnc(C4CC4)cn3)C[C@@H]2C1 [Example 67, [(7S,8aR)-7-[(5-cyclopropylpyrazin-2-yl)oxy]hexahydropyrrolo[1,2-a]-pyrazin-2(1H)-yl][3-(trifluoromethyl)phenyl]methanone]
23 | 4.2 µM | O=C(c1cccc(C(F)(F)F)c1)N1CCN2C(=O)C(Oc3cnc(C4CC4)cn3)CC2C1 (stereo not drawn) [Example 205, 7-[(5-cyclopropylpyrazin-2-yl)oxy]-2-[3-(trifluoromethyl)benzoyl]-hexahydropyrrolo[1,2-a]pyrazin-6(2H)-one]
24 | 3.4 µM | O=C1[C@H]2C[C@@H](Oc3cnc(C4CC4)cn3)CN2CCN1Cc1ccc(C(F)(F)F)cc1 (single isomer, unassigned) [Example 167]
25 | 2.97 µM | CC(C)(C)OC(=O)N1CCN2C[C@@H](Nc3ccc(C(F)(F)F)cn3)C[C@H]2C1 [Example 19, tert-butyl (7S,8aS)-7-{[5-(trifluoromethyl)pyridin-2-yl]amino}hexahydro-pyrrolo[1,2-a]pyrazine-2(1H)-carboxylate]
26 | 2.69 µM | COC(C(=O)N1CCN2C[C@H](Oc3cnc(C4CC4)cn3)C[C@H]2C1)(c1ccccc1)C(F)(F)F (stereo partly drawn) [Example 165, 1-[(7R,8aS)-7-[(5-cyclopropylpyrazin-2-yl)oxy]hexahydropyrrolo[1,2-a]-pyrazin-2(1H)-yl]-3,3,3-trifluoro-2-methoxy-2-phenylpropan-1-one]
27 | 1.63 µM | O=C(C(NCCF)c1cccc(C(F)(F)F)c1)N1CCN2C[C@H](Oc3cnc(C4CC4)cn3)C[C@H]2C1 (stereo partly drawn) [Example 204, 1-[(7R,8aS)-7-[(5-cyclopropylpyrazin-2-yl)oxy]hexahydropyrrolo[1,2-a]-pyrazin-2(1H)-yl]-2-[(2-fluoroethyl)amino]-2-[3-(trifluoromethyl)phenyl]ethanone]
28 | 1.53 µM | FC(F)(F)c1cccc(N2CCN3C[C@@H](Nc4nccc(C(F)(F)F)n4)C[C@H]3C2)n1 [Example 36, (7S,8aS)-2-[6-(trifluoromethyl)pyridin-2-yl]-N-[4-(trifluoromethyl)-pyrimidin-2-yl]octahydropyrrolo[1,2-a]pyrazin-7-amine]
29 | 1.42 µM | CC(C)(C)OC(=O)N1CCN2C[C@@H](NS(=O)(=O)c3cccc(C(F)(F)F)c3)C[C@H]2C1 [Example 41, tert-butyl (7S,8aS)-7-({[3-(trifluoromethyl)phenyl]sulfonyl}amino)-hexahydropyrrolo[1,2-a]pyrazine-2(1H)-carboxylate]
30 | 1.05 µM | O=C(C(NCC(F)F)c1cccc(C(F)(F)F)c1)N1CCN2C[C@H](Oc3cnc(C4CC4)cn3)C[C@H]2C1 (stereo partly drawn) [Example 202, 1-[(7R,8aS)-7-[(5-cyclopropylpyrazin-2-yl)oxy]hexahydropyrrolo[1,2-a]-pyrazin-2(1H)-yl]-2-[(2,2-difluoroethyl)amino]-2-[3-(trifluoromethyl)phenyl]ethanone]
